# The campaign covered roughly 48,000 compounds. About 450 (0.94%) were called active. Inconclusive results (about 19%) are left out. Calls follow the shape of the dose curve; as a rule, active = well fitted inhibition curve with a large enough effect; inconclusive = small, poorly fitted or top-dose-only effect; inactive = no such curve, though single readings can be large or run the other way. This is one part of the list.
# Test: Primary qHTS for Identification of Small Molecule Inhibitors of Huntingtin Promoter Activity; also: nearly all actives have a fitted effect of over 50% in size
# Settings: HEK293 HTT promoter firefly luciferase reporter (activity 0% = vehicle and -100% = no light), 24 h; series mostly up to 57.5 µM; activity change, negative = inhibition: at the top concentration
# Method in brief: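 Quantitative HTS used concentration series of up to 57.5 uM final on HEK293 luciferase reporter cells, 24 h at 37 degrees C. Readout was Dual-Glo firefly luminescence.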
row,Compound,"activity change, negative = inhibition"
1,Cc1ccc(C)c(NS(=O)(=O)c2cc3c4c(c2)C(C)C(=O)N4CCC3)c1 (stereo not drawn),inactive: -14.2%
2,CCNC(=O)Cn1nc(C)n2c(cc3c(OC)cccc32)c1=O,inactive: -0.966%
3,Cc1c(Cl)cccc1-n1ncc(C(=O)N2CCOCC2)c1C1CCN(C(=O)OC(C)(C)C)CC1,inactive: -18.9%
4,Cc1cc(C)n(C(C)CC(=O)NCc2ccc(Cl)cc2)n1 (stereo not drawn),inactive: -1.88%
5,Cc1ccc(OCC(=O)OCc2cc(=O)n3nc(C4CC4)sc3n2)cc1,inactive: -22%
6,COCCCNC(=O)C1CCN(c2cc(C)nc3c(-c4ccc(Cl)cc4)c(C)nn23)CC1,inactive: -7.81%
7,CCN(CC)CCCNC(=O)c1ccc2c(Cl)c3c(nc2c1)CCCC3,inactive: -8.38%
8,CCOC(=O)Cn1c(=O)n(-c2ccccc2OC)c2nc(-c3ccc(C(C)C)cc3)nc(C(N)=O)c21,inactive: -7.57%
9,CC(C)CC1Nc2ccc(C(=O)NCCCOC(C)C)cc2NC1=O (stereo not drawn),inactive: -17.1%
10,CCCNC(=O)CSc1nc(-c2ccc(OC)cc2)cc(C(F)(F)F)n1,inactive: -0.01%
11,COc1ccccc1N1CCN(CC(O)COc2cc(OC)c(OC)c(OC)c2)CC1 (stereo not drawn),inactive: 12%
12,CNCC[C@@H](Oc1ccccc1C)c1ccccc1,inactive: 1.69%
13,COc1ccc2c(CNCc3cccs3)c(C(=O)O)n(Cc3ccccc3F)c2c1,inactive: -14.5%
14,COc1ccc(CC(=O)N2CCc3cc(OC)c(OC)cc3C2COc2ccc(F)cc2)cc1OC (stereo not drawn),inactive: -17.2%
15,CN(C)c1ccc(NC(=O)CSC2=Nc3ccccc3C3=NC(CCC(=O)NCc4cccs4)C(=O)N23)cc1 (stereo not drawn),inactive: -27.4%
16,Cc1ccc(C(=O)C(C)CN2CCCCC2)cc1 (stereo not drawn),inactive: 4.38%
17,Cn1c(SCC(=O)Nc2nc3ccccc3s2)ncc(C(=O)Nc2ccc(F)cc2)c1=O,inactive: 9.26%
18,COc1cccc(C(=O)Nc2cccc(C(=O)OCc3cc(=O)n4c(C)csc4n3)c2)c1,inactive: -17.1%
19,Cc1c(C(=O)NC(C)c2ccccc2)sc2nc3n(c(=O)c12)CCCC3 (stereo not drawn),inactive: 37.5%
20,NS(=O)(=O)c1ccc2nc(NC(=O)COc3ccc(Cl)cc3Cl)sc2c1,inactive: -8.95%
21,CCOC(=O)COc1ccc(C)cc1C(=O)c1ccn2nc(-c3ccc(F)cc3)cc2n1,inactive: -10.6%
22,CC1CCN(C(=O)c2cccc(NC(=O)c3nsc4ccccc34)c2)CC1,inactive: 38.6%
23,COc1ccccc1Cc1nc2ccccc2nc1SCC(=O)NCc1ccccc1Cl,inactive: -2.61%
24,CN1CCc2nc3sc(C(=O)Nc4ccccc4C(F)(F)F)c(N)c3cc2C1,inactive: -12.1%

row,Compound,"activity change, negative = inhibition"
1,CCCC1=Nc2cc(C(=O)N3CCC(C)CC3)ccc2Sc2ccc(C)cc21,inactive: -12.9%
2,Cc1ccc2c(=O)c(C(=O)c3cccc(Cl)c3)cn(CC(=O)Nc3ccccc3C(F)(F)F)c2n1,inactive: -4.56%
3,COc1ccccc1C(=O)OCc1cc(=O)n2nc(C(C)C)sc2n1,inactive: -1.34%
4,CCOC(=O)CC(=O)CSc1nc2ccccc2c(=O)n1CCc1ccc(S(N)(=O)=O)cc1,inactive: -20.7%
5,CC1CCCCN1CCCNC(=O)c1cc(Sc2ccc(Cl)cc2)nc2ccccc12 (stereo not drawn),inactive: -12.3%
6,COc1ccc(-c2noc(-c3ccc(NCC4CCCO4)c([N+](=O)[O-])c3)n2)cc1OC (stereo not drawn),inactive: -3.98%
7,COc1ccccc1CNC(=O)c1oc2ccc3c(c2c1C)C(=O)CC(C)(C)O3,inactive: -2.89%
8,CC(=O)Nc1ccc(NC(=O)CCS(=O)(=O)c2ccc3c(c2)CC(=O)N3C)cc1,inactive: -8.28%
9,CCOC(=O)C1CCC(CN(Cc2cccc(Br)c2)S(=O)(=O)c2ccc(Cl)cc2)CC1 (stereo not drawn),inactive: -25.5%
10,CCOC(=O)N1CCc2c(sc3c2C(=O)NC(c2ccccc2F)N3)C1 (stereo not drawn),inactive: -13.6%
11,COc1ccc(N2CC(NC(=O)COc3ccc4ccccc4c3)CC2=O)cc1OC (stereo not drawn),inactive: -15.5%
12,CCN1C(=O)C(Cc2nc3ccccc3c(=O)n2-c2ccc(OC)cc2)c2ccccc21 (stereo not drawn),inactive: 7.95%
13,Cc1ccc(-n2c(=O)c3c4c(sc3n(CC(=O)Nc3ccccc3C)c2=O)CCCCC4)cc1C,inactive: -9.24%
14,COc1ccccc1CNc1nccn(-c2ccccc2)c1=O,inactive: 9.16%
15,CCC(C)NC(=O)c1sc2nc(C)c(C(=O)Nc3ccc(C)cc3C)c(-c3ccccc3Cl)c2c1N (stereo not drawn),inactive: -26.7%
16,CCOC(=O)c1cccc2c1N[C@@H](c1ccc(F)cc1)[C@H]1CC=C[C@@H]21,inactive: -15.7%
17,Cn1cc(S(=O)(=O)N2CCCCC2)cc1C(=O)Nc1cccc(C#N)c1,inactive: -14.2%
18,Cc1ccc(CNC(=O)Cn2c(=O)n(Cc3ccc(F)cc3)c(=O)c3sc4ccccc4c32)cc1,inactive: -12.3%
19,O=C(Nc1ccc(Cl)cc1)N1CCC(c2ccccc2)C1 (stereo not drawn),inactive: 41.6%
20,O=C(CCCCC(=O)Nc1c(I)cc(I)c(C(=O)O)c1I)Nc1c(I)cc(I)c(C(=O)O)c1I,inactive: -2.91%
21,CCCN(C(=O)Cn1ncc2c([nH]c3ccc(C)cc32)c1=O)c1ccccc1C,inactive: 0.885%
22,COc1cccc(N2CC(NC(=O)/C=C\c3ccc(OC)c(OC)c3)CC2=O)c1 (stereo not drawn),inactive: 1.08%
23,CCOc1ccccc1NC(=O)c1c(NCc2sccc2C)sc2c1CCC(C)C2 (stereo not drawn),inactive: -2.03%
24,CCC(C)NC(=O)CN1C(=O)COc2ccc(S(=O)(=O)N3CCOCC3)cc21 (stereo not drawn),inactive: -6.49%

# From PubChem BioAssay AID1508623 (National Center for Advancing Translational Sciences (NCATS), 2021)
